Measurements published in PubChem BioAssay AID488969 (Vanderbilt High Throughput Screening Facility, 2010).
In all, about 110,000 compounds were measured (“z-score”: median about -0.1, highest 2% from about 2 on). The list shows a part of the results.

What follows are molecules tested against Metabotropic glutamate receptor 8 (Rattus norvegicus) (UniProt P70579) (assay: mGluR8 Gi/Go-coupled signaling modulation – cell-based, rat, thallium flux, HTS, primary screen (AID 488969)). Conditions: HEK293 rat mGluR8, GIRK (G protein-gated inwardly rectifying potassium channel) thallium flux, FluoZin2; at 10 µM; stronger effect = higher value; submaximal glutamate (EC20) added with thallium.
Sequence of UniProt P70579 (P70579 whole entry, looked up): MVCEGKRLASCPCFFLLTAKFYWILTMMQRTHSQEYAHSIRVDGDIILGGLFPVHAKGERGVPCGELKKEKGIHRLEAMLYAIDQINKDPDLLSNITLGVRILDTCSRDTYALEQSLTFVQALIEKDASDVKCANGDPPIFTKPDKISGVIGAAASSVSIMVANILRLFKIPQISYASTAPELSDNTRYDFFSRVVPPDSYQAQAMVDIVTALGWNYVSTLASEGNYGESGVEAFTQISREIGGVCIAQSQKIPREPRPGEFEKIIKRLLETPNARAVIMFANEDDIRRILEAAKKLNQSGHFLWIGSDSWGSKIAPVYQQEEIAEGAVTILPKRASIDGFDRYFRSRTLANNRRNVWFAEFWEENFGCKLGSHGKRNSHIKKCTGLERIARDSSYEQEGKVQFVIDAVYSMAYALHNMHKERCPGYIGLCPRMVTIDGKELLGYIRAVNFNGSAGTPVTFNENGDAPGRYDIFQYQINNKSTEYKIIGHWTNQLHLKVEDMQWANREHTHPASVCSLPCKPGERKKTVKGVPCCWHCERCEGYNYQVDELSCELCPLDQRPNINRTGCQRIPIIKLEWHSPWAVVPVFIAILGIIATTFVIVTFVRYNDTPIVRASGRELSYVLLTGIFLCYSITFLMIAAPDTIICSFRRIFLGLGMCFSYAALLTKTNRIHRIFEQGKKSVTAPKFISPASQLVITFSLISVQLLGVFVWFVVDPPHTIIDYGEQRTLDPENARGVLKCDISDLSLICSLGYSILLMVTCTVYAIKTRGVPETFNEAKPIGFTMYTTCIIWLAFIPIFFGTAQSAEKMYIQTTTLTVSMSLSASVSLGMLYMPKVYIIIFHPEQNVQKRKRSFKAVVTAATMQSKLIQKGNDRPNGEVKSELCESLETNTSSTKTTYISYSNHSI

| SMILES | z-score |
| --- | --- |
| O=C(C(Cc1ccccc1)N1C(=O)C2C3C=CC(C3)C2C1=O)N1CCCCCC1 (stereo not drawn) | 0.597 |
| COc1ccc(-c2[nH]c(-c3cc(OC)c4c(c3)OCO4)nc2-c2ccccc2)cc1 | -0.0302 |
| Clc1ccc(-c2c[n+](Cc3cccc(Cl)c3)c3n2CCC3)cc1 | -0.344 |
| CSC1=N/C(=C\c2ccc(C)cc2)C(=O)S1 | -0.344 |
| COc1cc2c(C(=O)NCc3ccc4c(c3)OCO4)cn(CC(C)C)c(=O)c2cc1OC | -0.451 |
| O=C(CSc1nnc2c(n1)[nH]c1ccc(F)cc12)OCc1ccccc1 | 0.106 |
| CC1CCCC(C)N1NC(=S)Nc1ccc(OC(F)F)cc1 (stereo not drawn) | -0.0533 |
| Cc1ccn(CC(=O)N/N=C/c2cc([N+](=O)[O-])ccc2O)n1 | 1.59 |
| Cc1c(C(=O)NCC2COc3ccccc3O2)oc2ccc(S(=O)(=O)N3CC(C)CC(C)C3)cc12 (stereo not drawn) | -0.128 |
| COc1cccc(C2CC(c3ccccc3Cl)Nc3nc(N)nn32)c1 (stereo not drawn) | 0.0252 |
| CCOC(=O)/C(C(N)=NCCO)=C(/O)c1ccccc1 | -0.561 |
| COC(=O)c1ccc(CC(=O)c2nc3ccccc3s2)cc1 | 0.0549 |
| O=C(COC(=O)c1ccc(S(=O)(=O)NCc2ccco2)cc1)NC1CCCCC1 | -0.0764 |
| COc1cccc(NS(=O)(=O)c2nc3nc(C)cc(C)n3n2)c1 | -0.0439 |
| CCCSc1nc2c(cnn2-c2ccc(C)c(C)c2)c(=O)[nH]1 | -0.398 |
| Cc1ccc(C(=O)Nc2c(C#N)c(C)c(C)n2Cc2ccccc2)cc1 | -0.166 |
| COCc1nnc(NC(=O)CCc2ccccc2)s1 | -0.154 |
| Cc1c(N=Cc2c(O)n(Cc3ccco3)c(=O)c3ccccc23)c(=O)n(-c2ccccc2)n1C | -1.95 |
| COc1cccc(-c2cc(N)nn2C(=O)Nc2ccc(Cl)cc2)c1 | 0.894 |
| Cc1cccc(N(C(=O)c2sc(C)nc2C)C(C(=O)NCc2ccco2)c2ccccc2)c1 (stereo not drawn) | -1.18 |
| O=C(CCN1C(=O)C2CCCCC2C1=O)NNC(=O)c1cccc(Cl)c1 (stereo not drawn) | -0.214 |
| O=S(=O)(c1ccc2c(c1)N(Cc1ccc(Cl)cc1)C1CCCN21)N1CCOCC1 (stereo not drawn) | 0.105 |

| SMILES | z-score |
| --- | --- |
| Cc1ccc2c(C)cc[n+](CCCS(=O)(=O)[O-])c2c1 | -0.475 |
| O=C1NCC(CN(c2ccccc2)c2ccccc2)O1 (stereo not drawn) | -0.57 |
| CCOC(=O)C1CCN(Cc2nc3ccccc3c(=O)n2-c2ccc(F)cc2)CC1 | -0.219 |
| N#Cc1c(NC(=O)Cn2cnc3ccccc3c2=O)oc(-c2ccccc2)c1-c1ccccc1 | -0.403 |
| COc1cc(/C=C(/NC(=O)c2ccccc2)C(=O)N2CCN(C)CC2)c([N+](=O)[O-])cc1OC | 0.00529 |
| Cc1ccccc1CSc1nnc(C)c(=O)[nH]1 | -1.64 |
| COc1ccc(Cn2nnnc2C(C(C)C)N2CCc3ccccc32)cc1 (stereo not drawn) | -0.681 |
| COC(=O)C1=C(C)N(Cc2ccco2)C(=O)C1 | -0.236 |
| O=C(Nc1ccc(N2CCN(C(=O)c3ccco3)CC2)c(Cl)c1)c1cc2ccccc2o1 | 0.12 |
| COc1ccc(NS(=O)(=O)c2ccc(NC(=O)Cc3cccs3)cc2)cc1 | -0.263 |
| Cc1ccc(C(C)C)c(OCCCN2C(=O)NC(C)(C)C2=O)c1 | -0.0616 |
| CNC(=O)c1cccnc1Nc1cccc(C(F)(F)F)c1 | -0.271 |
| COc1ccc(S(=O)(=O)Nc2ccc(C)cc2)cc1OC | -0.166 |
| CCOC(=O)c1cnc(-n2nc(C)cc2C)nc1NNc1nc(-c2ccccc2)cc(-c2ccccc2)n1 | 1.52 |
| O=C1CC(C(=O)NCc2ccccc2)N=C(N2CCCCC2)N1 (stereo not drawn) | -0.139 |
| c1ccc(CN2CCN(c3nc4ccccc4c4ccccc34)CC2)cc1 | -0.0842 |
| COc1ccccc1CNC(=O)C(CC(C)C)NS(=O)(=O)c1ccc2c(c1)oc(=O)n2C (stereo not drawn) | -0.127 |
| N/C(=N\OC(=O)CCCN1C(=O)c2ccccc2C1=O)c1ccc(Cl)cc1 | -0.264 |
| CCOP(=O)(OCC)c1nc(/C=C/c2ccccc2)oc1NCc1ccc(OC)cc1 | -0.161 |
| Nn1c(COc2ccccc2)nnc1SCc1cc(=O)[nH]c2ccccc12 | -0.0617 |
| COCC(C)NCc1cccc(C)c1 (stereo not drawn) | -0.316 |
| CC(NC(=O)c1ccc(C(C)(C)C)cc1)C(=O)O (stereo not drawn) | -0.0659 |

| SMILES | z-score |
| --- | --- |
| CCSc1nc2sc3c(c2c(=O)[nH]1)CCCC3 | 0.575 |
| COC(=O)/C(=C\Nc1cccc(Cl)c1C)c1ncc(C(F)(F)F)cc1Cl | -0.0603 |
| COc1ccc(OCc2nc(N)nc(Nc3ccc(C)cc3)n2)cc1 | 0.32 |
| CCOc1ccc(C(Nc2ccc(C)cc2)P2(=O)OCC(C)(C)CO2)cc1 (stereo not drawn) | -0.774 |
| O=C(Nc1ccc(Cl)cc1)Nc1nnc(-c2ccncc2)s1 | 0.625 |
| O=C(N/N=C\c1cn(-c2ccccc2)nc1-c1ccccc1)c1ccc(Br)o1 | 0.129 |
| CCn1c(SCC(=O)Nc2cccc(NC(=O)c3cccs3)c2)nnc1-c1ccncc1 | -0.924 |
| COc1ccc(CC(=O)OCc2nnc(C3COc4ccccc4O3)o2)cc1OC (stereo not drawn) | -0.295 |
| O=C(NCc1ccccn1)C1CCC(=O)N1C1CCCC1 (stereo not drawn) | -0.148 |
| N/C(COc1ccc(F)cc1)=N\NC(=O)c1cccnc1Oc1ccccc1 | 0.152 |
| O=C(Cn1c(=O)oc2cc(S(=O)(=O)N3CCCC3)ccc21)N1CCN(c2ccccc2)CC1 | -0.227 |
| CCCn1c(SCC(=O)NCc2ccco2)nc2c1c(=O)n(C)c(=O)n2C | -0.274 |
| O=C(c1ccc(CN2CCOCC2)cc1)N1CCN(c2ccccc2)CC1 | 0.0496 |
| CCc1nc(SCc2nnc(-c3ccc(C)cc3)o2)c2c(C)c(C)sc2n1 | 2.26 |
| Cc1nn(C)c(C(=O)Nc2ccn(C34CC5CC(CC(C5)C3)C4)n2)c1[N+](=O)[O-] | -0.352 |
| Cc1nn(C)cc1/C=N/NC(=S)Nc1ccccc1 | 0.161 |
| O=C1CCc2nc3ccccc3c(=O)n2N1 | 0.554 |
| Cc1ccc(S(=O)(=O)N2CCCCC2)cc1NC(=O)COC(=O)c1cc[n+]([O-])cc1 | -0.223 |
| C=CCc1cccc(/C=N/NC(=O)CCC(=O)Nc2ccc(F)cc2)c1O | -0.177 |
| Cc1nn(-c2ccccn2)c2c1-c1nc(N)ncc1CC2 | 0.0268 |
| O=C1C(Cl)=C(NCC2CCCO2)C(=O)N1c1ccccc1 (stereo not drawn) | 0.302 |
| COc1ccc(-n2c(C)cc(-c3csc(NC(=O)c4ccc(S(=O)(=O)N(C)C)cc4)n3)c2C)cc1 | -0.439 |

| SMILES | z-score |
| --- | --- |
| O=C(Nc1nnc(C2CC2)s1)C1Cc2ccccc2CN1S(=O)(=O)c1ccccc1F (stereo not drawn) | -0.696 |
| CC1(C)Cc2cccc(OCC(=O)Nc3cccnc3Cl)c2O1 | -1.2 |
| COC1CCCCC1NS(=O)(=O)c1ccccc1 (stereo not drawn) | 0.306 |
| O=C1C2CCCN2C(c2cccc(Br)c2)N1c1ccc(F)cc1 (stereo not drawn) | -0.401 |
| CCCOC(=O)c1ccc(Oc2c(-c3ccc(O)cc3O)n[nH]c2C)cc1 | -0.101 |
| O=C1OC(c2ccc(Br)cc2)=N/C1=C\N1CCCCC1 | -0.66 |
| CCc1cc(/C(Cc2csc(C)n2)=N/O)c(O)cc1O | 0.129 |
| COc1ccccc1Nc1nc(-c2sc(NC(=O)c3cccc(Cl)c3)nc2C)cs1 | -0.0406 |
| CSc1nc2[nH]ncc2c(=O)n1-c1ccccc1 | -1.58 |
| COc1ccc(S(=O)(=O)N2CCN(C)CC2)cc1Br | 0.0329 |
| CCNC(=O)C1CC(=O)OC12CCCCC2 (stereo not drawn) | 0.317 |
| Oc1cccc(-c2nc3ccc4ccccc4c3c3c2CCC3)c1 | -0.105 |
| CCn1cc(CN(C)C(=O)CSc2nc(-c3ccco3)cc(C(F)(F)F)n2)c(C)n1 | -0.163 |
| Cc1sc(NC(=O)Cc2ccc3c(c2)OCO3)nc1-c1ccc2c(c1)CCN2C(=O)c1ccccc1F | 0.615 |
| CCCCN=c1scc(-c2ccc3c(c2)NC(=O)CO3)n1N=C1CCCC1 | 0.495 |
| Cc1cc(=O)[nH]c(-c2ccccc2O)n1 | 0.0443 |
| Cc1sc(NC(=O)c2ccco2)c(C(Nc2ccccn2)c2ccccc2)c1C (stereo not drawn) | -0.177 |
| N#CCCCSc1nnc(Cc2ccc3c(c2)OCO3)o1 | 0.714 |
| Cc1nnc(Sc2c(N)n(C)c(=O)n(C)c2=O)s1 | 0.31 |
| CN1C(=O)c2cccc3c(Cl)ccc(c23)C1=O | -0.106 |
| CCN(CC)S(=O)(=O)N1CCC(C(=O)NCC2COc3ccccc3O2)CC1 (stereo not drawn) | -0.198 |
| CCOc1ccc(OCCSc2nnnn2C2CCCCC2)cc1 | 0.543 |

| SMILES | z-score |
| --- | --- |
| CCOC(=O)c1c(NC(=O)COC(=O)c2cc(OC)c(OC)cc2[N+](=O)[O-])sc(C)c1C | -0.0967 |
| COCCNC(=O)CSc1nnc(CCCN2C(=O)c3cccc4cccc(c34)C2=O)n1-c1ccccc1 | -0.209 |
| O=C(NC1CCCCC1)N1CCN(CCc2ccccc2)CC1 | 0.524 |
| CC1CCc2c(nc3ncnn3c2Nc2ccc(OC(F)(F)F)cc2)C1 (stereo not drawn) | -0.73 |
| Cc1ccc(Cl)cc1Nc1nc(-c2sc(NC(=O)c3ccco3)nc2C)cs1 | 0.0211 |
| CCc1nnc(NC(=O)CCC(=O)O)s1 | -0.0075 |
| O=C(CCSc1ccccc1)NCCSCc1ccco1 | 0.657 |
| Cn1c(=O)oc2cc(S(=O)(=O)NCCCN3CCCC3=O)ccc21 | -0.124 |
| CCOC(=O)C1CN(S(=O)(=O)c2ccc(C)cc2)c2cc(S(=O)(=O)CC)ccc2O1 (stereo not drawn) | -0.375 |
| Cc1c(-c2ccc(Br)cc2)nc2ccccn12 | -0.361 |
| C=CCn1c(SCc2ccc([N+](=O)[O-])cc2)nnc1C(C)NC(=O)c1ccccc1 (stereo not drawn) | -0.0826 |
| COc1ccc(-c2n[nH]c(C(F)(F)F)c2-c2cc3ccccc3o2)c(O)c1 | -0.366 |
| COc1ccccc1NC(=S)NCCc1c[nH]c2ccccc12 | 0.083 |
| Cc1cc2c(cc1C)N(C(=O)CN1C(=O)c3ccccc3C1=O)C(C)(C)c1ssc(=S)c1-2 | -0.00698 |
| CCOC(=O)c1c(NC(=O)CSc2nnc(Cc3ccccc3)o2)sc(C(C)=O)c1C | -0.218 |
| CCOC(=O)c1nn(-c2ccc(C)cc2)cc1O | -0.269 |
| CCc1c(C)sc(NC(=O)c2cc(C3CC3)on2)c1C#N | 1.96 |
| CCc1sc(C(=O)NC2CCN(C)CC2)cc1Br | 1.02 |
| Cc1ccc(S(=O)(=O)Nc2ccc(C(OC(=O)c3ccccc3[N+](=O)[O-])(C(F)(F)F)C(F)(F)F)cc2)cc1 | 0.353 |
| CC(C)N1CC23C=CC(O2)C(C(=O)OCc2ccccc2)C3C1=O (stereo not drawn) | 0.588 |
